Measurements as given in publication PMC11995724, “Antibiotic target discovery by integrated phenotypic and activity-based profiling of electrophilic fragments” (Cell chemical biology, 2025).
Out of some 3,200 compounds screened, about 75 (2%) showed an effect of 50% or more. This is one part of the list.

These compounds were tested on T1, S. aureus MSSA476. Settings: relative growth, OD600, TSB; 25 µM; inhibitor.
T1 construct: MSSA476
Set-up: species or system S. aureus MSSA476 (TSB) or V. cholerae SAD30 (LB); 384-well bacterial growth screen at 25 uM, OD600 relative to DMSO control

SMILES	% of control remaining [%]
C=CC(=O)NCc1ccc(C(=O)N2CCC[C@H]2C(=O)NC)cc1 [3-L06, (2S)-N-methyl-1-{4-[(prop-2-enamido)methyl]benzoyl}pyrrolidine-2-carboxamide]	87.0701
C=CC(=O)Nc1ccc(C(=O)NCC2CSCCS2)cc1 (stereo not shown) [2-K21, N-[(1,4-dithian-2-yl)methyl]-4-(prop-2-enamido)benzamide]	131.245
Cc1nc([C@H]2CCCN2C(=O)C(C)Cl)cs1 (stereo partly drawn) [7-O04, 2-chloro-1-[(2R)-2-(2-methyl-1,3-thiazol-4-yl)pyrrolidin-1-yl]propan-1-one]	97.6452
C=CC(=O)NC1CCCN(Cc2ccccc2)C1=O (stereo not shown) [2-L13, N-(1-benzyl-2-oxopiperidin-3-yl)prop-2-enamide]	107.572
C=CC(=O)Nc1cnoc1C(C)C [3-L10, N-[5-(propan-2-yl)-1,2-oxazol-4-yl]prop-2-enamide]	129.56
Cc1cc(C)c(-c2cc(NC(=O)CCl)n(-c3ccccc3)n2)cc1C [6-A10, 2-chloro-N-[1-phenyl-3-(2,4,5-trimethylphenyl)-1H-pyrazol-5-yl]acetamide]	60.439
C=CC(=O)N1CCC(c2nnc3n2CCCC3)CC1 [2-J21, 1-(4-{5H,6H,7H,8H-[1,2,4]triazolo[4,3-a]pyridin-3-yl}piperidin-1-yl)prop-2-en-1-one]	121.497
CC(NC(=O)CCl)c1ccc2c(c1)CCCC2 (stereo not shown) [4-B03, 2-chloro-N-[1-(5,6,7,8-tetrahydronaphthalen-2-yl)ethyl]acetamide]	76.6079
CC1=C(c2ccco2)CN(C(=O)CCl)CC1 [5-H05, 2-chloro-1-[5-(furan-2-yl)-4-methyl-1,2,3,6-tetrahydropyridin-1-yl]ethan-1-one]	84.8816
C=CC(=O)N1CCCCC1C1CCCO1 (stereo not shown) [2-L21, 1-[2-(oxolan-2-yl)piperidin-1-yl]prop-2-en-1-one]	124.282
CC(Cl)C(=O)N1CCN(C(=O)C(F)(F)F)C2(CCCCC2)C1 (stereo not shown) [7-K06, 2-chloro-1-[1-(2,2,2-trifluoroacetyl)-1,4-diazaspiro[5.5]undecan-4-yl]propan-1-one]	91.9937
CCc1nocc1CN(C)C(=O)C(C)Cl (stereo not shown) [7-M06, 2-chloro-N-[(3-ethyl-1,2-oxazol-4-yl)methyl]-N-methylpropanamide]	99.2151
CCc1ccc(NC(=O)C(C)Cl)cc1 (stereo not shown) [4-L15, 2-chloro-N-(4-ethylphenyl)propanamide]	105.193
